Data as given in paper PMC6664820, “Novel natural and synthetic inhibitors of solute carriers SGLT1 and SGLT2” (Pharmacology Research & Perspectives, 2019).
Out of some 1,900 compounds screened, about 40 (2%) showed an effect of 50% or more. The list shows a part of the results.

Target: human SGLT1 (hSGLT1) (human, UniProt P13866)
Assay: primary screen, percent of control activity; higher = less effect of the substance
Design: single well
Settings: 50 µM
Procedure, shortened: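 Single-point screen at 50 µmol/L in CHO-hSGLT1 cells, with 160 µmol/L 1-NBD-glucose in glucose-free DMEM for 90 min at 37°C. Fluorescence from isopropanol extracts was calibrated, and CHO wild-type uptake was subtracted. Data are percent of uptake without compound.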

Chain of human SGLT1 (hSGLT1) (P13866 whole entry, looked up): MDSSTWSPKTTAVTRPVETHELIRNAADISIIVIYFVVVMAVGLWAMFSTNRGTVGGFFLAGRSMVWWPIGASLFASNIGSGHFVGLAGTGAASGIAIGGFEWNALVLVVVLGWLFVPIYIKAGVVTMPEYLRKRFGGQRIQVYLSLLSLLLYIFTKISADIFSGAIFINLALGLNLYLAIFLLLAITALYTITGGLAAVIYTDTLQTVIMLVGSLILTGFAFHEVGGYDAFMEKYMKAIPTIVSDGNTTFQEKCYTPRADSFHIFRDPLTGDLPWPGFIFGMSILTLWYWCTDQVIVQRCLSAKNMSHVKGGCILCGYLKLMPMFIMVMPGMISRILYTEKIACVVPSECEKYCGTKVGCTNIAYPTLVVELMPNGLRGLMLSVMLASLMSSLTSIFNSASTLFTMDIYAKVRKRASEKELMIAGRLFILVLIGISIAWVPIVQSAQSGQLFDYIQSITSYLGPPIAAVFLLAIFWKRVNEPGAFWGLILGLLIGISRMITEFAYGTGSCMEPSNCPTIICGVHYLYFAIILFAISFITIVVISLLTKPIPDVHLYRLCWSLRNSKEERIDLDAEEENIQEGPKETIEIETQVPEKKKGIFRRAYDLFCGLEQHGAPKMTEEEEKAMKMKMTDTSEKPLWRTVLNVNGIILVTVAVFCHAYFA

Point of comparison: `NCCCN.O=C(O)C(O)C(O)C(=O)O` (stereo not drawn), “NORMALIZED SGLT1 ACTIVITY (%)” value 118%. Against it:
- CN(C)CCN(Cc1ccccc1)c1ccccn1.O=C(O)CC(O)(CC(=O)O)C(=O)O — lower, 57%
- CC12CC3CC(C)(C1)CC(N)(C3)C2.Cl — lower, 79%
- NC[C@H]1O[C@H](O[C@H]2[C@H](O)[C@@H](O[C@H]3O[C@H](CO)[C@@H](O)[C@H](N)[C@H]3O)[C@H](N)C[C@@H]2N)[C@H](N)C[C@@H]1O — lower, 106%
- CCc1nc(N)nc(N)c1-c1ccc(Cl)cc1 — lower, 82%
- C=CC(C1=CC(=O)C(OC)=CC1=O)c1ccccc1 (stereo not drawn) — higher, 190%
- COc1cnc(NS(=O)(=O)c2ccc(N)cc2)nc1 — lower, 110%
- CC1(C)C(=O)C=C[C@@]2(C)C1=C(O)C(=O)[C@]1(C)C2CC[C@@]2(C)[C@H](c3ccoc3)C[C@H]3O[C@]321 (stereo partly drawn) — lower, 45%
- CC(=O)O[C@H]1CC[C@@]2(C)C(C[C@@H](OC(C)=O)[C@@]3(C)C4=CC(=O)O[C@@H](c5ccoc5)[C@]4(C)CCC23)C1(C)C (stereo partly drawn) — higher, 358%
- COc1ccc(-c2cc(=O)c3c(O)cc(O)cc3o2)cc1O — higher, 180%
- Cc1cc(NC(=O)C2=C(O)c3ccccc3S(=O)(=O)N2C)no1 — lower, 97%
- Cc1ccc(C(=O)Nc2ccc(S(=O)(=O)[O-])c3cc(S(=O)(=O)[O-])cc(S(=O)(=O)[O-])c23)cc1NC(=O)c1cccc(NC(=O)Nc2cccc(C(=O)Nc3cc(C(=O)Nc4ccc(S(=O)(=O)[O-])c5cc(S(=O)(=O)[O-])cc(S(=O)(=O)[O-])c45)ccc3C)c2)c1.[Na+].[Na+].[Na+].[Na+].[Na+].[Na+] — lower, 114%
- CC(=O)[C@H]1CCC2C3CC=C4C[C@@H](O)CC[C@]4(C)C3CC[C@@]21C (stereo partly drawn) — lower, 117%
- CC(C)CCCC(C)C1CCC2C3CC(=O)[C@H]4C[C@@H](O)CC[C@]4(C)C3CC[C@]12C (stereo partly drawn) — lower, 107%
- CN(C)CC/C=C1\c2ccccc2Sc2ccc(Cl)cc21.Cl — lower, 87%
- CCCCCCCCCCCC[C@H](C(=O)O)[C@@H](C)C(=O)O — higher, 154%
- CCCc1cc(C(N)=S)ccn1 — higher, 139%
- Cc1cccc(Nc2ccccc2C(=O)O)c1C — higher, 295%
- C=CCC1(C(C)CCC)C(=O)N=C([S-])NC1=O.[Na+] (stereo not drawn) — lower, 94%
- C=CCSCC=C — lower, 93%
- CC(N)C(=O)OC(C)(C)Cc1ccc(Cl)cc1 (stereo not drawn) — higher, 122%
- Cl.OC(CCN1CCCC1)(c1ccccc1)C1CCCCC1 (stereo not drawn) — lower, 45%
- CC(C)(C)NCC(O)c1ccc(O)c(CO)c1 (racemic) — lower, 104%
- COc1cc2c(cc1-c1coc3c4c(c(OC)cc3c1=O)OC(C)(C)C=C4)OCO2 — lower, 94%
- O=C1CCC(N2C(=O)c3ccccc3C2=O)C(=O)N1 (stereo not drawn) — higher, 171%
- COc1cccc2c1CCC1CC(=O)CC[C@]21C (stereo partly drawn) — higher, 137%
- CCC/C=C1\OC(=O)C2=C1CCC=C2 — higher, 126%
- C[C@@H]1C(=O)O[C@H]2[C@H]1CC[C@@]1(C)C=CC(=O)[C@@]3(C)O[C@@]213 — lower, 96%
- N=c1[nH]c(=O)c2[nH]c(=O)c(=O)[nH]c2[nH]1 — higher, 125%
- OC[C@@H](O)[C@@H](O[C@@H]1O[C@H](CO)[C@@H](O)[C@H](O)[C@H]1O)[C@H](O)[C@@H](O)CO — lower, 95%
- CN(C)CCC[C@@]1(c2ccc(F)cc2)OCc2cc(C#N)ccc21.O=C(O)C(=O)O — higher, 208%
- OC[C@H]1O[C@@](CO)(O[C@H]2O[C@H](CO)[C@@H](O)[C@H](O)[C@H]2O)[C@@H](O[C@H]2O[C@H](CO)[C@@H](O)[C@H](O)[C@H]2O)[C@@H]1O — lower, 96%
- CC(C)(O)[C@@H]1Cc2cc3ccc(=O)oc3cc2O1 — higher, 135%
- Cl.N/C(=N\C(=O)c1nc(Cl)c(N)nc1N)NCc1ccccc1 — higher, 167%
- CN1CCN(C2=Nc3ccccc3Oc3ccc(Cl)cc32)CC1.O=C(O)CCC(=O)O — lower, 117%
- CC(C)NCC(O)c1cc(O)cc(O)c1 (stereo not drawn) — lower, 96%
- CCC(C)C(=O)O[C@@H]1C[C@@]2(C)[C@H](c3ccoc3)OC(=O)CC23OC2(C)O[C@]14[C@]1(C)[C@@H](CC(=O)OC)C5(C)CC1(O)[C@](O)(C5OC(=O)C1(C)OC1C)[C@@H](OC(C)=O)[C@]34O2 (stereo partly drawn) — higher, 159%
- Br.COc1ccc2c(c1)[C@]13CCCC[C@H]1[C@H](C2)N(C)CC3 — lower, 64%
- O=C(O)CCCC[C@@H]1SC[C@@H]2NC(=O)N[C@@H]21 — higher, 141%
- COc1cc2c(cc1OC)[C@@H]1C(=O)c3ccc4c(c3O[C@@H]1CO2)C=CC(C)(C)O4 — higher, 334%
- CC(=O)OCC(COC(C)=O)OC(C)=O — lower, 98%
- NC1(C(=O)O)CC1 — higher, 130%
- O=C(O)c1ccccc1C(=O)Nc1ccc(S(=O)(=O)Nc2nccs2)cc1 — lower, 86%
- OCC(O)Cc1ccc2c(c1)OCO2 (stereo not drawn) — lower, 104%
- CC(=O)Oc1ccc(O)cc1 — higher, 135%
- CC1(C)C(=O)[C@@H]2O[C@@H]2[C@@]2(C)C1CC(=O)[C@]1(C)C2CC[C@@]2(C)[C@H](c3ccoc3)OC(=O)[C@H]3O[C@]321 (stereo partly drawn) — lower, 83%
- OCCN1C[C@H](O)[C@@H](O)[C@H](O)[C@H]1CO — lower, 109%
- COc1ccc2c(c1)[nH]c1c(C)nccc12 — higher, 272%
- O=C(CCCN1CCC(O)(c2ccc(Cl)cc2)CC1)c1ccc(F)cc1 — lower, 88%
- C[C@]12CCC3C(CC[C@H]4C[C@@H](O)CC[C@]34C)C1CCC2=O (stereo partly drawn) — lower, 104%
- CCn1cc(C(=O)O)c(=O)c2cc(F)c(N3CCNCC3)nc21 — higher, 145%
- O=C1c2c(O)cccc2Cc2cccc(O)c21 — higher, 134%
- CC(C(=O)O)c1ccc(C(=O)c2cccs2)cc1 (stereo not drawn) — higher, 228%
- CCOC(=O)NNc1nncc2ccccc12.Cl — higher, 154%
- Cn1c(=O)[nH]c2ncn(C)c2c1=O — higher, 164%
- C=NC(C(=O)NC1C(=O)N2C1SC(C)(C)C2C(=O)[O-])c1ccccc1.[Na+] (stereo not drawn) — higher, 174%
- C=CCCCCCCCCCCCC(O)CC(O)CO (stereo not drawn) — higher, 120%
- COc1ccc2c(c1)OC/C(=C/c1ccc(O)c(O)c1)C2=O — higher, 249%
- O=C(O)CCC(=O)c1ccc(-c2ccccc2)cc1 — higher, 305%
- COc1cc2cc3c4cc(OC)c(OC)cc4cc[n+]3c(C)c2cc1OC.[Cl-] — lower, 101%
- CCCCC(CC)CNC(=N)NC(=N)NCCCCCCNC(=N)NC(=N)NCC(CC)CCCC.Cl.Cl (stereo not drawn) — lower, 36%
- COc1ccc(-c2cc(=O)c3c(OC(C)=O)cc(OC(C)=O)cc3o2)cc1 — higher, 232%
- CN(C)C(=O)Oc1ccc[n+](C)c1.[Br-] — lower, 105%
- CC1=C(/C=C/C(C)=C/C=C/C(C)=C/C(=O)O)C(C)(C)CCC1 — higher, 235%
- C#CCCCCCCCCCCCC(O)CC(O)COC(C)=O (stereo not drawn) — higher, 127%
- CN1C(=O)CCS(=O)(=O)C1c1ccc(Cl)cc1 (stereo not drawn) — higher, 123%
- CC(C)NC(=N)NC(=N)Nc1ccc(Cl)cc1.Cl — higher, 130%
- COc1cccc2c1CCC1=CC(=O)CC[C@@]12C — lower, 78%
- CC(=O)[C@H]1CCC2C3CCC4=CC(=O)CC[C@]4(C)C3CC[C@@]21C (stereo partly drawn) — lower, 38%
- CC(C)=CCc1c2c(c3occ(-c4ccc(O)c(O)c4)c(=O)c3c1O)C=CC(C)(C)O2 — higher, 134%
- CNC(Cc1c[nH]c2ccccc12)C(=O)O (stereo not drawn) — lower, 110%
- COc1ccc(OC)c(C(O)CNC(=O)CN)c1.Cl (stereo not drawn) — lower, 104%
- C=C1C2CC[C@@]3(C)[C@H](c4ccoc4)OC(=O)C[C@]13O[C@H]1CC(=O)C(C)(C)C(CC(=O)OC)[C@@]21C (stereo partly drawn) — lower, 71%
- Nc1ccc(S(=O)(=O)[N-]c2cnc3ccccc3n2)cc1.[Na+] — higher, 119%
- Cc1ccc(/C(=C\CN2CCCC2)c2ccccn2)cc1.Cl — lower, 72%
- CC(=O)OCC(CCn1cnc2cnc(N)nc21)COC(C)=O — higher, 150%
- CCOC(=O)C1=C(O)C(=O)N(Cc2ccccc2)C1 — higher, 211%
- CC(=O)Nc1cccc(O)c1 — lower, 91%
- CC1=CC(=O)C2=C(C)C[C@H](O)[C@@H]3[C@H](OC(=O)[C@H]3C)[C@H]12 — higher, 171%
- C=C(C)[C@H]1COc2cc3oc(=O)ccc3cc2O1 — higher, 165%
- CN[C@@H]1[C@H](O)[C@H](NC)[C@H]2O[C@@]3(O)C(=O)C[C@@H](C)O[C@H]3O[C@@H]2[C@H]1O.Cl.Cl — lower, 111%
- CC(=O)OC(C)C[N+](C)(C)C.[Cl-] (stereo not drawn) — lower, 107%
- COc1ccc(C(=O)c2ccccc2O)c(O)c1 — lower, 111%
- Cc1ccc2cc3c(ccc4ccccc43)c3c2c1CC3 — lower, 107%
- CC[C@H]1OC(=O)[C@H](C)[C@@H](O[C@H]2C[C@@](C)(OC)[C@@H](O)[C@H](C)O2)[C@H](C)[C@@H](O[C@@H]2O[C@H](C)C[C@H](N(C)C)[C@H]2O)[C@](C)(OC)C[C@@H](C)C(=O)[C@H](C)[C@@H](O)[C@]1(C)O — lower, 103%
- COc1cc(CNC(=O)CCCC/C=C/C(C)C)ccc1O — higher, 210%
- C1CCN2C[C@@H]3C[C@H](CN4CCCC[C@@H]34)[C@H]2C1.O=S(=O)(O)O — lower, 72%
- C[C@@H]1CC[C@H]2[C@@H](C)C(=O)O[C@@H]3O[C@@]4(C)CC[C@@H]1[C@]32OO4 — higher, 120%
- CCCNC(C)C(=O)Nc1ccccc1C.Cl (stereo not drawn) — lower, 71%
- Cc1cc(O)cc(=O)o1 — lower, 113%
- COC1=CC(=O)C=C(OC)C1=O — higher, 308%
- O=C(O)[C@H](O)[C@@](O)(Cc1ccc(O)cc1)C(=O)O — lower, 96%
- O=C(Oc1cc(OC(=O)c2ccccc2)c2c(c1)O[C@H](c1ccc(OC(=O)c3ccccc3)c(OC(=O)c3ccccc3)c1)[C@@H](OC(=O)c1ccccc1)C2)c1ccccc1 — lower, 115%
